# Screen size: about 110,000 compounds; about 230 (0.21%) showed an effect of 50% or more. The list shows a part of the results.
# Molecular target: DPAP1 (Plasmodium falciparum, UniProt Q8IIJ9)
# Experiment: primary screen, percent inhibition; read by cleavage of a fluorogenic dipeptide substrate; higher = more effect of the substance
# Parameters: species or system P. falciparum D10 trophozoite lysates; single well
# 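Note: 30 min substrate incubation versus DMSO and 10 µM JCP410 controls.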
# DPAP1, sequence (Q8IIJ9 whole entry, looked up): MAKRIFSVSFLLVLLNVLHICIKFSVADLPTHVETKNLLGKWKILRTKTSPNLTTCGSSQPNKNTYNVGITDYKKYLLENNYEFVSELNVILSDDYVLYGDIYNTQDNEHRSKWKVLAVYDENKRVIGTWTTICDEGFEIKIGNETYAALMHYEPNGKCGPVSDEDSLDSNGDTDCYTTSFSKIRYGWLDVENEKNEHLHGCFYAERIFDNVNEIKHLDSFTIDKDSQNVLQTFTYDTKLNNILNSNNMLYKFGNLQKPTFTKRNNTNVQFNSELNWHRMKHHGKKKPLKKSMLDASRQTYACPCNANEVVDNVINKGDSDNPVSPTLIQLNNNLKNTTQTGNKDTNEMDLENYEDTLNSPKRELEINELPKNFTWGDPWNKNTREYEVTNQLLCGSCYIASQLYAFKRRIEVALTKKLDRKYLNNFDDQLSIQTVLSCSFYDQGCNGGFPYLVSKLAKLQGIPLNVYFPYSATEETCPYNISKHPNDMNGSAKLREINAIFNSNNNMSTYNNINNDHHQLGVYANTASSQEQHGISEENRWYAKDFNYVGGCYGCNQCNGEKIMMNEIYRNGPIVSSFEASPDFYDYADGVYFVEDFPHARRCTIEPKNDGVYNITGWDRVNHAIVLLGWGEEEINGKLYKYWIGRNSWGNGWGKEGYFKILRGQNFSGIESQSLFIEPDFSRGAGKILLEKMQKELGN
row,SMILES,% Inhibition @ 10 uM [%]
1,Cc1cc(C)n(C(=O)c2cccc(F)c2F)n1,3.16
2,Oc1ccccc1Nc1nc(N2CCOCC2)c2ccccc2n1,-4.49
3,O=C(O)CCc1ccc(-c2ccc(F)cc2)n1CC1CCCO1 (stereo not shown),-0.0678
4,Cc1cc(Cl)ccc1OCCCC(=O)NCc1ccncc1,-7.56
5,N#CCNC(=O)C(CC1CCCCC1)C(=O)Nc1cccnc1 (stereo not shown),-0.214
6,COc1ccc(CNC(=O)c2cc3c(O)nc4ccc(C)cc4c3s2)cc1,1.72
7,CCOc1ccccc1CNC(=O)C(CC)n1nc(CC)n2c(cc3oc(C)cc32)c1=O (stereo not shown),-5.87
8,CCOc1ccc(N2CC(C(=O)Nc3ccc(CC)cc3)CC2=O)cc1 (stereo not shown),2.44
9,C=Cc1ccc(Cn2c(=O)cc(C)c3c(C)nn(-c4cccc(F)c4)c32)cc1,0.0855
10,CC(=O)c1cc(-c2ccccc2)n(CC(=O)N2CCC(Cc3ccccc3)CC2)c1C,1.47
11,O=C(O)c1cc(S(=O)(=O)N2CCCCC2)c(Cl)cc1Cl,-0.546
12,CN1C(=O)N(C)C2(CC1(C)C)CC(C)(C)N(C)C(=O)N2C,-3.27
13,O=C(CCC1COc2ccccc2O1)Nc1ncccc1O (stereo not shown),-5.41
14,CCn1nc(-c2ccccc2C)nc2c(=O)n(C)c(=O)nc1-2,6.58
15,CC(C)(C)c1ccc(C(=O)Nc2ccccc2O)cc1,-2.09
16,COc1ccccc1CNC(=O)C1c2ccccc2C(=O)N(C2CCCC2)C1c1cccs1 (stereo not shown),0.0281
17,Cc1ccc2c(c1)c1c3n2CCCN=C3CCC1,3.05
18,O=C1c2n[nH]c(-c3ccccc3O)c2C(c2ccc(Cl)cc2)N1Cc1ccncc1 (stereo not shown),6.34
19,O=C(Cn1ccc2cc(S(=O)(=O)N3CCCCC3)ccc21)NCCc1c[nH]c2ccccc12,12.4
20,CCOC(=O)N1CCC(NC(=O)C2CCCN(S(=O)(=O)c3cccnc3)C2)CC1 (stereo not shown),-2.83
21,COc1ccc(N2C(=O)/C(=C\c3ccoc3)C(=O)NC2=S)cc1,8.27
22,CCCCOc1ccccc1C1C(C#N)=C(N)OC2=C1C(=O)CC(C)(C)C2 (stereo not shown),2.36
23,Cc1ccc(S(=O)(=O)NCc2ccc(C(=O)NC(C)C34C[C@H]5C[C@@H](C3)C[C@@H](C4)C5)cc2)cc1 (stereo partly shown),-2.72
24,CCCCn1c(CNC(=O)CCC)nc2ccccc21,1.94
25,COc1ccc(CN2CCN(c3ccc(F)cc3)CC2)cc1Br,-2.92
26,COc1cc(CCNCc2c(C(=O)O)n(C)c3cc(C)ccc23)cc(OC)c1OC,0.16

row,SMILES,% Inhibition @ 10 uM [%]
1,C=CCOc1ccc(/C=C2\C(=O)N(C)C(C)=C2C(=O)OC)cc1OC,-3.4
2,CC(C)(C)NS(=O)(=O)c1ccccc1Cl,-3.38
3,COc1ccc(CN2CCN(C(=O)c3cc(OC)c(OC)c(OC)c3)CC2)cc1OC,2.03
4,COc1ccc(CCNC(=O)Cc2c(C)c3ccc(O)cc3oc2=O)cc1,-0.808
5,O=C(C1CCN(c2ncnc3c2nc2n3CCCCC2)CC1)N1CCOCC1,0.00353
6,CC1CCN(C(=O)Nc2noc3c2COc2ccccc2-3)CC1,-3.47
7,Cc1cc(C)nc(-n2nc(C)c3c2NC(=O)CC3c2ccccc2C)n1 (stereo not shown),-2.88
8,CCCCNc1oc(/C=C/c2ccc(F)cc2)nc1C#N,4.13
9,COC(=O)c1sccc1NC(=O)C1=Cc2sc3c(c2CS1)CCCC3,6.31
10,Cn1nc(-c2ccccc2F)c2cc(C(=O)N3CCN(Cc4ccccc4)CC3)sc21,3.63
11,C=CCn1cc(/C=C2/NC(=O)N(Cc3ccccc3F)C2=O)c2ccccc21,-0.0626
12,CCOc1ccccc1NC(=O)CN(c1ccc(C)cc1)S(=O)(=O)c1ccc(C)cc1,5.28
13,COCCNC(=O)c1cc2c(=O)n3ccccc3nc2n1C,1.84
14,COc1cc(CN(C)C2CCN(C)CC2)cc(Br)c1O,-2.7
15,Clc1cccc(N2CCN(Cc3ccc(Cl)cc3Cl)CC2)c1,-1.93
16,COc1ccc(CNC(=O)CN(C2CCCCC2)S(C)(=O)=O)cc1,0.408
17,COc1ccccc1N1CCN(Cc2ccc(SC)cc2)CC1,1.63
18,O=C(Nc1nnc(-c2ccncc2)s1)C(=O)c1c[nH]c2ccccc12,3.72
19,Cn1c2ccccc2c2cc(C(=O)O)ccc21,2.46
20,Cc1noc(NS(=O)(=O)c2ccc(NC(=O)C34CC5CC(CC(C5)C3)C4)cc2)c1C,0.5
21,CCCc1ccc(-c2ccc(OC(F)(F)F)cc2)nc1,-1.59
22,N#CC1=C(N)Oc2[nH]nc(-c3cccs3)c2C1c1cccnc1 (stereo not shown),5.18
23,Cc1ccc(S(=O)(=O)Nc2cccc(C(=O)NCCC(C)C)c2)cc1,3.49
24,CC1=CC(C)C2(CO)COC(c3cccnc3)C1C2C (stereo not shown),1.54
25,Cc1ccccc1S(=O)(=O)Cc1ccc(C(=O)NC(C)C)o1,-0.971
26,C=CCn1c(SCC(=O)N2CCCCC2)nc(O)cc1=O,-6.82

row,SMILES,% Inhibition @ 10 uM [%]
1,Cc1cccc2nc(-c3cccs3)c(NC3CCCCC3)n12,-3.21
2,Nc1c(C(=O)C2CC2)sc2nc(-c3cccs3)cc(C(F)(F)F)c12,8.36
3,NC12CC3CC(C1)CC(O)(C3)C2,-1.29
4,CCOC(=O)CN1CCn2c3c(c4cc(C)ccc42)CCCC31 (stereo not shown),4.7
5,O=C(CCN1CCOCC1)N1N=C(c2ccccc2)CC1c1ccco1 (stereo not shown),5.77
6,COc1ccc(C2CC(=O)Oc3c2c(=O)oc2ccccc32)cc1COc1ccc(F)cc1F (stereo not shown),2.77
7,COc1cc(NC(=O)c2cccs2)c2ncccc2c1,1.27
8,C=CCSc1nc(=O)c2c(n1C)NC(=O)CC2c1cccc(O)c1 (stereo not shown),-1.11
9,COc1cc(C2c3c(oc4ccccc4c3=O)C(=O)N2Cc2ccccc2)cc(Br)c1O (stereo not shown),-1.33
10,CCOCCCNC(=O)/C(C#N)=C/c1c(Oc2ccc(Cl)c(C)c2)nc2c(C)cccn2c1=O,2
11,CCOc1cc(C2CC(=O)NC3=C2C(=O)CCC3)ccc1O (stereo not shown),1.76
12,CCOc1ccc(/C=C2\SC(=O)N(Cc3ccc(F)cc3)C2=O)c(OCC)c1,0.131
13,CC(C)C(=O)N(Cc1ccccc1)c1cccc([N+](=O)[O-])c1,1.21
14,CCOc1ccc(CCNC(=O)C2CC(=O)N(Cc3ccc(OC)cc3)C2)cc1OCC (stereo not shown),4.81
15,N#CC1=C(N)Oc2c(c(O)nc3ccccc23)C1c1ccc(F)cc1 (stereo not shown),0.76
16,O=C(Cc1cccs1)Nc1ccc(-c2nc(O)c3ccccc3n2)cc1,-3.24
17,COC(=O)c1c(C)c(O)nc2ccccc12,-3.41
18,CCCn1nnnc1NCc1ccccc1OCc1cccs1,-3.63
19,O=C(Nc1ccc2ccccc2c1)C1CCCCC1,-1.25
20,CN(C)c1ccc(NC(=O)Nc2ccc(Cl)cc2)cc1,0.51
21,O=c1[nH]c2ncccc2c(=O)n1Cc1ccccc1Cl,-1.66
22,CC1(C)C2CCC(C2)C1CC1OCC(CN2CCCCC2)O1 (stereo not shown),-1.55
23,O=C(/C=C/N1CCOCC1)c1cc2ccccc2o1,1.63
24,COc1cccc(CNC2CCCC2)c1OC,-2.22
25,CCN1CCN(C(=O)C2CCN(c3nnc(-n4c(C)ccc4C)s3)CC2)CC1,-2.37
26,CC1CCCCN1CCCNC(=O)Cn1ncc2ccc(Cl)cc21 (stereo not shown),-1.11

row,SMILES,% Inhibition @ 10 uM [%]
1,CC1CN(C(C)CCc2ccccc2)CC(C)O1 (stereo not shown),-3.74
2,COC(=O)c1ccc(C2c3c(oc4ccccc4c3=O)C(=O)N2Cc2ccc3c(c2)OCO3)cc1 (stereo not shown),5.3
3,O=C(Nc1ccc(F)cc1)c1ccc(N2C(=O)c3ccccc3C2=O)cc1,-8.76
4,Cc1ccc2nc(NC(=O)c3ccc(Cn4cc(Cl)cn4)o3)sc2c1,2.1
5,O=C(c1cc2nc(-c3ccco3)cc(C(F)(F)Cl)n2n1)N1CCSCC1,5.54
6,O=C(Nc1ccc(Cl)c(C(F)(F)F)c1)C1CC(=O)N(c2ccccc2)C1 (stereo not shown),-1.06
7,CC1=C(C(=O)N2CCCCC2)C(c2ccsc2)C2=C(O)CCCC2=N1 (stereo not shown),0.219
8,COc1ccc(Br)c(C(=O)Nc2noc3ccccc23)c1,-2.85
9,CC1CCCN(C2CN3CCC2CC3)C1 (stereo not shown),-3.82
10,O=C(CSc1nc2ccc([N+](=O)[O-])cc2s1)c1ccccc1,-0.424
11,Cc1cc(C)n(-c2nc3cc(Cl)c(Cl)cc3n3cnnc23)n1,-6.58
12,CN1CCN(C(=O)c2cc3c(s2)-c2ccccc2SC3)CC1,1.15
13,CCOCCCNC(=O)C(c1ccc(C)cc1)N1CCOCC1 (stereo not shown),-0.363
14,Brc1ccc(CN2CCc3c([nH]c4ccccc34)C2)s1,-0.828
15,COc1ccc2cc(C(C)OC(=O)N[C@@H](CC(C)C)C(=O)NCC#N)ccc2c1 (stereo partly shown),-8.26
16,CCCc1nnc2[nH]c(=O)n(C)c(=O)c2n1,-1.11
17,CC1CCC(N(C)CC(O)c2ccccc2)CC1 (stereo not shown),-1.75
18,Cc1ccc(CNc2ncnc3onc(-c4ccc(Cl)cc4)c23)cc1,-3.95
19,Clc1ccccc1OCCCCCCN1CCCC1,-4.01
20,CCC(Oc1ccccc1)C(=O)Nc1ccc(C)c(C)c1 (stereo not shown),8.28
21,CC1CCN(C(=O)c2cnn3c(C(F)(F)F)cc(-c4cccs4)nc23)CC1,0.51
22,CNC(=O)N1CCN(C(=O)NC)CC1,-3.77
23,Nc1c(C(=O)c2ccc(Cl)cc2)sc2nc3c(cc12)CCCC3,4.66
24,Cc1cccc(OCC(=O)NC2CCCCC2)c1,-2.74
25,Cc1ccc(-n2nc3c(c2NC(=O)c2c(F)cccc2F)CS(=O)(=O)C3)cc1,1.17

# Reference: PMC6919601, “Identification of Plasmodium dipeptidyl aminopeptidase allosteric inhibitors by high throughput screening” (PLoS ONE, 2019)
